The values below come from publication PMC3226628, “The Golgi Localization of GOLPH2 (GP73/GOLM1) Is Determined by the Transmembrane and Cytoplamic Sequences” (PLoS ONE, 2011).

These are yes or no findings as the source states them, for the method shown. For part of these data: Binding seen in cells or lysates may run through a third protein. Some results given as binding are weak or reduced against the parent protein; the word gives no strength. For part of these data: Sequences can lack the tags named with a protein.

Test [1] has as its target T1, GOLPH2-IIIA (amino acids 56–152) (human) (UniProt Q8NBJ4).
T1 sequence: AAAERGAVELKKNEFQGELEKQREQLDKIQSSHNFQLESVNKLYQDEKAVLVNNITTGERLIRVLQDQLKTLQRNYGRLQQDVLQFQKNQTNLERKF
The test can be described thus: two-hybrid; Matchmaker GAL4 Two-Hybrid System 3; AH109 (pGBKT7 fusions) mated with Y187 (pGADT7 fusions); growth on SD/-Trp/-Leu/-His/-Ade (++) or SD/-Trp/-Leu/-Ade with 1 mM 3-AT (+), 30°C, 3 d to 8 d.

The target in test [2] is T2, GOLPH2-III–IV–V (two-hybrid fragment) (human) (UniProt Q8NBJ4).
T2 sequence: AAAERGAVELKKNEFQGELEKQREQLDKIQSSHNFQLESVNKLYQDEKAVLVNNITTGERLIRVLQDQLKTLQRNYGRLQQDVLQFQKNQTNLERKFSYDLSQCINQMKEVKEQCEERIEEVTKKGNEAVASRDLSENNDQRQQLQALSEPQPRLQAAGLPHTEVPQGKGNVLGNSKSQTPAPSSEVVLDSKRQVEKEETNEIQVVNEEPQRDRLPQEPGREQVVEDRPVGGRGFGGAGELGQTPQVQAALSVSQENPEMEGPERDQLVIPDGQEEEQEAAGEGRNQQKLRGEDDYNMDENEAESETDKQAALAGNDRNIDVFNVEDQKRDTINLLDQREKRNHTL
Described as above.

In test [3] the target is T3, GOLPH2-Δ(IV–V) (amino acids 1–205) (human) (UniProt Q8NBJ4).
T3 sequence: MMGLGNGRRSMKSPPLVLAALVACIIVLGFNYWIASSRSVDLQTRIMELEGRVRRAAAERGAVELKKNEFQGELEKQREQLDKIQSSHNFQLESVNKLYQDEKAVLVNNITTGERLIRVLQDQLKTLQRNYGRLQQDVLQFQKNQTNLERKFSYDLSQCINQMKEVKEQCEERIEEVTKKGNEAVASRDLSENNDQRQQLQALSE
Put plainly: co-IP; HeLa cells co-transfected with FLAG-tagged fragments and untagged full-length GOLPH2; 1% Triton X-100 lysis buffer (20 mM HEPES pH 7.3, 100 mM KCl, 5 mM EDTA), anti-FLAG M2, protein A/G beads, 4°C; immunoblot with GOLPH2 antibody. A general note: In western blotting, separated proteins are transferred to a membrane and probed.

For test [4], the target named is T4, GOLPH2-Δ(I–II–III) (amino acids 206–401) (human) (UniProt Q8NBJ4).
T4 sequence: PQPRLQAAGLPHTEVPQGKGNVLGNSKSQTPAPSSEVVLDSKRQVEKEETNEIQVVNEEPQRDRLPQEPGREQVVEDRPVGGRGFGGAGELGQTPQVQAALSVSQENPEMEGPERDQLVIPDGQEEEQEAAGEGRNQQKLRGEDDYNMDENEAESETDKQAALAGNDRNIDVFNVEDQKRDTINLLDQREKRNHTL
The test is described as above.

Test [5] addresses T5, GOLPH2-Δ(I–II–IV–V) (amino acids 56–205) (human) (UniProt Q8NBJ4).
T5 sequence: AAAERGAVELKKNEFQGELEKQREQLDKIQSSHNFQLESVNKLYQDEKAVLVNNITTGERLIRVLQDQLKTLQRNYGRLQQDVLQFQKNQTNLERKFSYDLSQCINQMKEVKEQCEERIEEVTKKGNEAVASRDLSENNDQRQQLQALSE
Described as above.

The target of test [6] is intracellular GOLPH2 from HeLa cell lysate (human (endogenous in HeLa)) (UniProt Q8NBJ4). Put plainly: SDS-PAGE under non-reducing and reducing conditions with immunoblot; HeLa cell lysate, normal human urine or HeLa supernatant boiled with 0 or 140 mM 2-mercaptoethanol; immunoblot with GOLPH2 antibody.
In test [7] the target is GOLPH2-FLAG C170A (human) (UniProt Q8NBJ4). The test can be described thus: SDS-PAGE under non-reducing conditions with immunoblot; lysates of HeLa cells 36 h after transfection with pCR3.1-GOLPH2-FLAG or mutants; immunoblot with FLAG antibody.
Test [8] has as its target GOLPH2-FLAG C159A (human) (UniProt Q8NBJ4). The description is as above.
In test [9] the target is GOLPH2-FLAG (wild-type, full length) (human) (UniProt Q8NBJ4). Described as above.
The target in test [10] is GOLPH2-Δ(1–55) C159A-C170A (human) (UniProt Q8NBJ4). The test can be described thus: condition: only in SDS (non-reducing SDS-PAGE, which keeps only disulfide-linked dimers); SDS-PAGE under non-reducing and reducing conditions; purified GOLPH2-Δ(1–55) and cysteine mutants boiled with 0 to 100 mM 2-mercaptoethanol, 10% SDS-PAGE; shows disulfide-linked oligomers; both purified.

B1: GOLPH2-IIIA (amino acids 56–152) (domain or fragment, UniProt Q8NBJ4 56-152)
chain: AAAERGAVELKKNEFQGELEKQREQLDKIQSSHNFQLESVNKLYQDEKAVLVNNITTGERLIRVLQDQLKTLQRNYGRLQQDVLQFQKNQTNLERKF
Regarding B1, the binding result in [1] and in test [2] was “binds” in each case.

B2: full length GOLPH2 (without FLAG tag) (protein, UniProt Q8NBJ4 1-401)
chain: MMGLGNGRRSMKSPPLVLAALVACIIVLGFNYWIASSRSVDLQTRIMELEGRVRRAAAERGAVELKKNEFQGELEKQREQLDKIQSSHNFQLESVNKLYQDEKAVLVNNITTGERLIRVLQDQLKTLQRNYGRLQQDVLQFQKNQTNLERKFSYDLSQCINQMKEVKEQCEERIEEVTKKGNEAVASRDLSENNDQRQQLQALSEPQPRLQAAGLPHTEVPQGKGNVLGNSKSQTPAPSSEVVLDSKRQVEKEETNEIQVVNEEPQRDRLPQEPGREQVVEDRPVGGRGFGGAGELGQTPQVQAALSVSQENPEMEGPERDQLVIPDGQEEEQEAAGEGRNQQKLRGEDDYNMDENEAESETDKQAALAGNDRNIDVFNVEDQKRDTINLLDQREKRNHTL
Take B2: the binding result is on record as “binds” in [3], “no binding” in test [4] and “binds” in test [5].

B3: intracellular GOLPH2 from HeLa cell lysate (protein, UniProt Q8NBJ4 1-401)
chain: MMGLGNGRRSMKSPPLVLAALVACIIVLGFNYWIASSRSVDLQTRIMELEGRVRRAAAERGAVELKKNEFQGELEKQREQLDKIQSSHNFQLESVNKLYQDEKAVLVNNITTGERLIRVLQDQLKTLQRNYGRLQQDVLQFQKNQTNLERKFSYDLSQCINQMKEVKEQCEERIEEVTKKGNEAVASRDLSENNDQRQQLQALSEPQPRLQAAGLPHTEVPQGKGNVLGNSKSQTPAPSSEVVLDSKRQVEKEETNEIQVVNEEPQRDRLPQEPGREQVVEDRPVGGRGFGGAGELGQTPQVQAALSVSQENPEMEGPERDQLVIPDGQEEEQEAAGEGRNQQKLRGEDDYNMDENEAESETDKQAALAGNDRNIDVFNVEDQKRDTINLLDQREKRNHTL
On to B3, for which the binding entry in [6] is “binds”.

B4: GOLPH2-FLAG C170A (protein, UniProt Q8NBJ4 1-401)
chain: MMGLGNGRRSMKSPPLVLAALVACIIVLGFNYWIASSRSVDLQTRIMELEGRVRRAAAERGAVELKKNEFQGELEKQREQLDKIQSSHNFQLESVNKLYQDEKAVLVNNITTGERLIRVLQDQLKTLQRNYGRLQQDVLQFQKNQTNLERKFSYDLSQCINQMKEVKEQAEERIEEVTKKGNEAVASRDLSENNDQRQQLQALSEPQPRLQAAGLPHTEVPQGKGNVLGNSKSQTPAPSSEVVLDSKRQVEKEETNEIQVVNEEPQRDRLPQEPGREQVVEDRPVGGRGFGGAGELGQTPQVQAALSVSQENPEMEGPERDQLVIPDGQEEEQEAAGEGRNQQKLRGEDDYNMDENEAESETDKQAALAGNDRNIDVFNVEDQKRDTINLLDQREKRNHTL
Regarding B4, in test [7], the binding result is recorded as “binds”.

B5: GOLPH2-FLAG C159A (protein, UniProt Q8NBJ4 1-401)
chain: MMGLGNGRRSMKSPPLVLAALVACIIVLGFNYWIASSRSVDLQTRIMELEGRVRRAAAERGAVELKKNEFQGELEKQREQLDKIQSSHNFQLESVNKLYQDEKAVLVNNITTGERLIRVLQDQLKTLQRNYGRLQQDVLQFQKNQTNLERKFSYDLSQAINQMKEVKEQCEERIEEVTKKGNEAVASRDLSENNDQRQQLQALSEPQPRLQAAGLPHTEVPQGKGNVLGNSKSQTPAPSSEVVLDSKRQVEKEETNEIQVVNEEPQRDRLPQEPGREQVVEDRPVGGRGFGGAGELGQTPQVQAALSVSQENPEMEGPERDQLVIPDGQEEEQEAAGEGRNQQKLRGEDDYNMDENEAESETDKQAALAGNDRNIDVFNVEDQKRDTINLLDQREKRNHTL
For the molecule B5, in test [8], the binding entry was “binds”.

B6: GOLPH2-FLAG (wild-type, full length) (natural protein, human, UniProt Q8NBJ4 1-401, looked up)
chain: MMGLGNGRRSMKSPPLVLAALVACIIVLGFNYWIASSRSVDLQTRIMELEGRVRRAAAERGAVELKKNEFQGELEKQREQLDKIQSSHNFQLESVNKLYQDEKAVLVNNITTGERLIRVLQDQLKTLQRNYGRLQQDVLQFQKNQTNLERKFSYDLSQCINQMKEVKEQCEERIEEVTKKGNEAVASRDLSENNDQRQQLQALSEPQPRLQAAGLPHTEVPQGKGNVLGNSKSQTPAPSSEVVLDSKRQVEKEETNEIQVVNEEPQRDRLPQEPGREQVVEDRPVGGRGFGGAGELGQTPQVQAALSVSQENPEMEGPERDQLVIPDGQEEEQEAAGEGRNQQKLRGEDDYNMDENEAESETDKQAALAGNDRNIDVFNVEDQKRDTINLLDQREKRNHTL
notes: Golgi phosphoprotein 2 (GOLPH2, GP73, GOLM1), human, full-length cDNA from Huh7 cells; also called pCR3.1-GOLPH2-FLAG; wild-type GOLPH2; source: HeLa, transfected, in lysate; not shown: FLAG, C-terminal, kept
On to B6, for which the binding entry in [9] is on record as “binds”.

B7: GOLPH2-Δ(1–55) (domain or fragment, human, UniProt Q8NBJ4 56-401, looked up)
chain: AAAERGAVELKKNEFQGELEKQREQLDKIQSSHNFQLESVNKLYQDEKAVLVNNITTGERLIRVLQDQLKTLQRNYGRLQQDVLQFQKNQTNLERKFSYDLSQCINQMKEVKEQCEERIEEVTKKGNEAVASRDLSENNDQRQQLQALSEPQPRLQAAGLPHTEVPQGKGNVLGNSKSQTPAPSSEVVLDSKRQVEKEETNEIQVVNEEPQRDRLPQEPGREQVVEDRPVGGRGFGGAGELGQTPQVQAALSVSQENPEMEGPERDQLVIPDGQEEEQEAAGEGRNQQKLRGEDDYNMDENEAESETDKQAALAGNDRNIDVFNVEDQKRDTINLLDQREKRNHTL
notes: Golgi phosphoprotein 2 (GOLPH2, GP73, GOLM1), human, residues 1-55 deleted; C-terminal luminal region, amino acids 56-401; also called purified wild-type GOLPH2; GOLPH2-Δ(1–55) fusion protein; source: E. coli BL21 (DE3), pET22b(+), purified (Ni-NTA)
Turning to B7, the binding result in test [1] and in test [2] was “binds” in each case.

B8: GOLPH2-Δ(1–55) C159A-C170A (domain or fragment, human, UniProt Q8NBJ4 56-401, looked up)
chain: AAAERGAVELKKNEFQGELEKQREQLDKIQSSHNFQLESVNKLYQDEKAVLVNNITTGERLIRVLQDQLKTLQRNYGRLQQDVLQFQKNQTNLERKFSYDLSQAINQMKEVKEQAEERIEEVTKKGNEAVASRDLSENNDQRQQLQALSEPQPRLQAAGLPHTEVPQGKGNVLGNSKSQTPAPSSEVVLDSKRQVEKEETNEIQVVNEEPQRDRLPQEPGREQVVEDRPVGGRGFGGAGELGQTPQVQAALSVSQENPEMEGPERDQLVIPDGQEEEQEAAGEGRNQQKLRGEDDYNMDENEAESETDKQAALAGNDRNIDVFNVEDQKRDTINLLDQREKRNHTL
notes: GOLPH2 (GP73, GOLM1), human, residues 1-55 deleted (amino acids 56-401), C159A and C170A; Monomer on non-reducing SDS-PAGE, same migration as the wild type on native-PAGE; also called double mutant C159A–C170A; source: E. coli BL21 (DE3), pET22b(+), purified (Ni-NTA)
Regarding B8, the binding result in test [10] is “no binding”.
